Experimental data: PubChem BioAssay AID1346428 (National Center for Advancing Translational Sciences (NCATS), 2018)
Screen size: about 48,000 compounds; about 1,200 (2.5%) were called active. Roughly 2% stayed inconclusive and do not appear here.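 How the source made its calls: active means activation of at least 60% and not above a set upper limit (about 1 call in 100 departs from these limits); inconclusive means activation of 40% to 60%, or above that upper limit; inactive means activation under 40%.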 Some of the results follow.

Biological target: Probable G-protein coupled receptor 32 (Homo sapiens) (UniProt O75388)
Assay: qHTS for Agonists of Human Resolvin D1 Receptor DRV1; further: 0% is about no effect
Details: CHO-K1 GPR32 beta-arrestin PathHunter luminescence, 90 min; at 76.9 µM; stronger effect = higher value; zero percent set by DMSO-only wells
How it was run: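 PathHunter beta-arrestin recruitment in CHO-K1 cells stably expressing ProLink-tagged GPR32. Cells were exposed to compound for 90 min at 37 C, then chemiluminescence was read after 1 h detection at ambient temperature; DMSO served as basal control.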

Sequence of UniProt O75388 (O75388 whole entry, looked up): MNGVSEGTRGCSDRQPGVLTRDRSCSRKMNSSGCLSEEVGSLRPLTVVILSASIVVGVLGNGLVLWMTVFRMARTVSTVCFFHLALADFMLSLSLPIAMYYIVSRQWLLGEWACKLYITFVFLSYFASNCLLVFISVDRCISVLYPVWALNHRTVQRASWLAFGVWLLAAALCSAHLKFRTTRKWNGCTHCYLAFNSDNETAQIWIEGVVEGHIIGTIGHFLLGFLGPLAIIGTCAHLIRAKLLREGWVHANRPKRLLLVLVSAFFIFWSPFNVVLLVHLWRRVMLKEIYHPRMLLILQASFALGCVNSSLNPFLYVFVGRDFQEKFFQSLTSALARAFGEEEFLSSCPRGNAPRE

activation, inactive:
COc1ccc(CNC(=O)c2ccc3nc(C(C)C)oc3c2)cc1OC -19%
Cc1cc(C)c(NC(=O)CSc2nc3ccncc3[nH]2)c(C)c1 11.5%
Cc1ccc(C2=NC(c3ccccc3)=Nc3ccc(Cl)cc3N2)cc1 -18.5%
CCc1ccc(NC(=O)CCc2nnc3n(C)c(=O)c4sccc4n23)cc1 -3.25%
COCCCNC(=O)CSc1nc(-c2ccc(OC)c(OC)c2)[nH]c1-c1ccc(F)cc1 -26.6%
Cc1cc(C)c2c(=O)cc(C(=O)NCc3ccc(S(N)(=O)=O)cc3)oc2c1 -2.74%
COC(=O)c1cc2oc3ccccc3c2n1Cc1c(C)cc(C)cc1C -20.8%
Cc1cccc(NC(=O)C2CCCN(S(=O)(=O)c3ccc(Br)s3)C2)c1 (stereo not drawn) -15.1%
Cc1cc(C)cc(NC(=O)Cn2c(=O)n(Cc3ccco3)c(=O)c3oc4ccccc4c32)c1 -14.1%
COc1cc2ccccc2cc1C(=O)Nc1cccc(-c2nc3cc(C)ccc3o2)c1C -2.2%
Cc1nn2c(=O)cc(COC(=O)COc3ccc(F)cc3)nc2s1 -11%
Cc1nc2cccnc2n1-c1cccc(C(=O)NCCc2ccc(S(N)(=O)=O)cc2)c1 -10.5%
COc1ccc(C(=O)NCCn2cc(SC(C)c3ccccc3)c3ccccc32)cc1OC (stereo not drawn) 19.5%
Cc1ccc(N(C)C(=O)CCS(=O)(=O)c2cc3c(cc2Cl)NC(=O)CO3)cc1 10.8%
COc1cc(NC(=O)NCCN2CCN(c3ccccc3)CC2)cc(OC)c1OC -13.8%
Cc1cc(C)c(S(=O)(=O)Nc2ccc(-c3ccc(N4CCCCCC4)nn3)cc2)cc1C -7.15%
CCN(CC)c1ccc2cc(-c3nc(-c4ccccc4F)no3)c(=O)oc2c1 -6.7%
CCO[C@@H]1O[C@H](C(COCc2ccccc2)OCc2ccccc2)[C@H](OCc2ccccc2)[C@H]1O (stereo partly drawn) -2.5%
Cc1cccc(NC(=O)CSc2nc3c(sc4ccccc43)c(=O)n2CCCC(=O)NC2CCCC2)c1 -14%
Cc1cccc(C(=O)Nc2ccc(S(=O)(=O)N(Cc3ccccc3)c3ccccc3)cc2)c1 14.2%
CCc1ccc(NC(=O)Nc2nnc(N(C)C3CCCCC3)s2)cc1 -8%
CC(=O)c1ccc(NC(=O)Cn2c(=O)nc(-c3ccccc3)c3cc(Cl)ccc32)cc1 2.36%
O=C(Nc1cccc(C(F)(F)F)c1)c1ccc2snnc2c1 23.2%
